# Reference: PubChem BioAssay AID686978 (National Center for Advancing Translational Sciences (NCATS), 2013)
# Several values for one entry are separate records, joined by “and”; a condition that tells them apart may be missing. Equal values may be shown once. Screen size: about 420,000 compounds; about 64,000 (15%) were called active. Inconclusive results, whose numbers are uncertain, are shown with a selection of clear calls. The call rests on the fitted dose curve; in most records, active means well fitted inhibition curve with a large enough effect; inconclusive means small, poorly fitted or top-dose-only effect; inactive means flat fitted curve, though single readings scatter. Where the call is inconclusive, the potency comes from a doubtful curve fit.
# Assay: qHTS for Inhibitors of human tyrosyl-DNA phosphodiesterase 1 (TDP1): qHTS in cells in absence of CPT; further: nearly all actives have a fitted effect of over 55% in size
# Details: DT40 Tdp1-/- hTDP1 cells, no CPT, ATP luminescence, 48 h; activity change, negative = growth inhibition: at 46.2 µM (top of the series) unless noted
# Method in brief: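 A cellular qHTS used chicken DT40 cells lacking endogenous Tdp1 but carrying stably transfected human TDP1. Compounds were applied without camptothecin, and cell growth kinetics were judged by ATP-dependent luminescence after ≥48 hr.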
# On the % scale 0 is the no-effect control and ±100 the full control effect; potency means the concentration at half of the fitted maximal effect; tags describe the fitted curve by direction and shape.
Compound,Potency,"activity change, negative = growth inhibition"
O=C(COC(=O)c1cccc(Br)c1)NC(=O)NC1CCCC1,"inconclusive: 0.0052 µM [inhibitor, full curve, poor fit]",–
OC(c1ccccc1)c1nc(-c2ccc(Cl)cc2)cs1 (configuration not stated),"inconclusive: 18.4 µM [inhibitor, single point]",–
CN(C)CCCNc1ncnc2sc(-c3ccccc3)cc12,active: 16.4 µM,–
COC(=O)[C@@]12C[C@@H](CC(=O)NCc3ccc(C)o3)C(=O)N(Cc3ccccc3)C1=CCC(C)(C)C2,"inconclusive: 25.9 µM [inhibitor, single point]",–
CCc1ccc(S(=O)(=O)c2nnn3c2nc(NCCNC(C)=O)c2cc(Cl)ccc23)cc1,"inconclusive: 29.1 µM [inhibitor, single point]",–
COc1ccc(C(=O)Nc2ccc3nc(C)sc3c2)cc1OC,–,inactive: -16.9%
Cc1ccc(C(C)C)cc1OCC(=O)NC1CCCCCCC1,"inconclusive: 18.4 µM [inhibitor, single point]",–
COc1cccc(CN(Cc2ccco2)S(=O)(=O)c2ccc(S(=O)(=O)NCc3ccccc3)cc2)c1OC,"inconclusive: 29.1 µM [inhibitor, single point]",–
Cc1ccccc1C(=O)c1cccn1CC(=O)NCc1cccc(Cl)c1,inactive,–
COc1ccc(CCN2C(=O)CN(C3CCC(C)CC3)C(=O)C2c2ccc(OC(C)C)c(OC)c2)cc1OC (configuration not stated),"inconclusive: 29.1 µM [inhibitor, single point]",–
C/C(=N\Nc1ccc(Cl)c(Cl)c1)c1ccc(-n2ccnc2)cc1,"inconclusive: 20.6 µM [inhibitor, single point]",–
CCCCCCCCC(=O)N1C(C)CCC1C (configuration not stated),"inconclusive: 29.1 µM [inhibitor, single point]",–
COc1ccccc1CNC(=O)c1cc(C)nc2ccccc12,"inconclusive: 23.1 µM [inhibitor, partial curve]",–
Cc1ccnc2ccc3ccccc3c12,"inconclusive: 28.2 µM [inhibitor, single point]",–
Cc1ccc(C)c(S(=O)(=O)N2CCCC2CNC(=O)C(=O)NCc2ccccn2)c1 (configuration not stated),–,inactive: 3.09%
C#CCSc1nnc(CSc2nc3ccccc3s2)n1-c1ccccc1,active: 18.4 µM,–
COC(=O)Nc1ccc(S(=O)(=O)N2CCCC(C(=O)N3CCOCC3)C2)cc1 (configuration not stated),–,inconclusive: -35.9% [inhibitor]
COCCN(CCOC)c1ncnc2c1c(-c1ccccc1)cn2-c1ccc(C)c(Cl)c1,"inconclusive: 29.1 µM [inhibitor, single point]",–
CC(Oc1ccccc1)C(=O)N(CCC1=CCCCC1)c1c(N)n(Cc2ccccc2)c(=O)[nH]c1=O (configuration not stated),"inconclusive: 29.1 µM [inhibitor, single point]",–
Cc1ccc(Cn2cc(CCC(=O)NCc3ccc(OC(C)C)cc3)c3ccccc32)cc1,"inconclusive: 23.1 µM [inhibitor, single point]",–
Cc1cc(C)c(C(O)c2ncc(-c3ccccc3Cl)[nH]2)c(C)c1 (configuration not stated),"inconclusive: 23.1 µM [inhibitor, single point]",–
Cc1ccc(-c2nc3ccc(Br)cn3c2Cc2ccccc2C(F)(F)F)cc1,"inconclusive: 20.6 µM [inhibitor, single point]",–
CCc1nn(CCCC(=O)NC(C)c2ccccc2)c(=O)c2cc3occc3n12 (configuration not stated),"inactive and inconclusive: 7.31 µM [inhibitor, single point]",–

Compound,Potency,"activity change, negative = growth inhibition"
OC(CNCc1ccc(F)cc1)(c1ccccc1)c1ccc(F)cc1 (configuration not stated),"inconclusive: 20.6 µM [inhibitor, single point]",–
Cn1c(SCc2ccccc2F)nc2c([nH]c3ccccc32)c1=O,"inconclusive: 1.3 µM [inhibitor, full curve]",–
C/C(CC(=O)N(C(C)C)C(C)C)=N\NC(=O)COc1ccc(Cl)cc1Cl,–,inconclusive: -34.2% [inhibitor]
O=C(CN1CCCCCC1)Nc1ccccc1[N+](=O)[O-],"inconclusive: 29.1 µM [inhibitor, single point]",–
CCCCCNC(=O)c1c[nH]c2ccc(S(=O)(=O)N3CCC4(CC3)OCCO4)cc2c1=O,"inconclusive: 20.6 µM [inhibitor, partial curve]",–
Cc1cc([N+](=O)[O-])ccc1NC(=O)c1ccc(NC(=O)C(C)C)cc1,active: 18.4 µM,–
Cc1ccc(O)c(C(=O)c2cc(C(=O)NCCc3ccccc3)c(=O)n(CCc3ccccc3)c2)c1,active: 16.4 µM,–
CCC(C)[C@H](NC(=O)C1CC(=O)N(c2ccc3c(c2)OCO3)C1)C(=O)NC1CCCCC1 (some centres not stated),–,inactive: -19.1%
CCC(CC)C(=O)OCC(=O)C1(O)CCC2C3CCC4=CC(=O)CCC4(C)C3C(O)CC21C (configuration not stated),"inconclusive: 18.4 µM [inhibitor, single point]",–
CC1(C)N=C(C(=O)c2ccccc2)N(O)C1(C)O (configuration not stated),–,inactive: -5.82%
O=C(CN1C(=O)COc2ccc(S(=O)(=O)N3CCOCC3)cc21)NCc1ccco1,–,inactive: -3.52%
Cc1cc(C)c(C)c(S(=O)(=O)NCCCn2ccnc2)c1C,"inconclusive: 9.2 µM [inhibitor, single point]",–
COc1ccc(CN(C)C(=O)Cc2ccsc2)c(OC)c1OC,–,inactive: -6.23%
COc1ccccc1OCC(=O)N/N=C(\C)c1ccc2ccccc2c1,"inconclusive: 18.4 µM [inhibitor, single point]",–
Clc1ccc(CNC2CCCC2)cc1,–,inactive: -13.4%
CN(CC(=O)Nc1ccc(Cl)c(C(F)(F)F)c1)C(=O)c1cccnc1Sc1ccccc1,"inconclusive: 25.9 µM [inhibitor, single point]",–
CN1C(=O)N(CC(=O)Nc2ccc3c(c2)OCO3)C(=O)C12CCCCC2,–,inactive: -8.73%
Cc1noc(C)c1COC(=O)c1ccccc1Sc1ccccc1C#N,"inconclusive: 18.4 µM [inhibitor, single point]",–
Cc1ccc(NC(=O)Cn2c(=O)n(Cc3ccc4c(c3)OCO4)c(=O)c3ccc(C(=O)NC4CCCCC4)cc32)c(C)c1,"inconclusive: 7.31 µM [inhibitor, partial curve]",–
COc1ccc(-c2nc3c(C)cc(Br)cn3c2Cc2cccc(Cl)c2)cc1OC,"inconclusive: 20.6 µM [inhibitor, single point]",–
COc1ccc(Cc2nnc(NS(=O)(=O)c3ccc([N+](=O)[O-])cc3)s2)cc1,–,inactive: -13.7%
CC(=O)N1c2ccc(S(=O)(=O)N(C)Cc3ccccc3)cc2CC1C (configuration not stated),active: 20.6 µM,–
COc1cccc(NC(=O)CSc2nc3c(oc4ccccc43)c(=O)[nH]2)c1,active: 23.1 µM,–

Compound,Potency,"activity change, negative = growth inhibition"
COc1ccc(NC(=O)CSc2nc3sc4c(c3c(=O)n2-c2ccc(OC)cc2)CCN(C)C4)cc1,"inconclusive: 20.6 µM [inhibitor, single point]",–
C=CCc1cc(S(=O)(=O)c2ccc(O)c(CC=C)c2)ccc1O,–,inconclusive: -37% [inhibitor]
COc1ccc(OC[C@@H](O)CNC(=O)c2cccc3c2C(=O)c2ccc(Cl)cc2S3(=O)=O)cc1,"inconclusive: 20.6 µM [inhibitor, single point]",–
N=c1c2ccccc2nc2n1CCCCCCC2,"inconclusive: 29.1 µM [inhibitor, single point]",–
COc1cc(NS(=O)(=O)c2ccc(N/C=C\C(=O)c3ccc(OC)c(OC)c3)cc2)nc(OC)n1,"inconclusive: 29.1 µM [inhibitor, single point]",–
C#CCNC(=O)C[C@@H]1C[C@@]2(C(=O)OCC)CCC=C2N(Cc2ccc(Cl)cc2Cl)C1=O,active: 23.1 µM,–
COc1ccc(C)cc1NC(=O)c1ccc2c(c1)nnn2C1CCCC1,"inconclusive: 20.6 µM [inhibitor, single point]",–
CC1=C(C(=O)N2CCOCC2)CC(CC(=O)NC(c2ccccc2)c2ccccc2)C(=O)N1Cc1ccc(F)cc1 (configuration not stated),"inconclusive: 23.1 µM [inhibitor, single point]",–
S=C(NCc1cccs1)Nc1ccccc1Cl,–,inactive: -28.7%
O=C(O)C(=Cc1ccccc1Cl)c1ccccc1,–,inactive: -27.2%
CCn1c2ccccc2c2cc(CN3CCN(Cc4ccccc4C)CC3)ccc21,"inconclusive: 20.6 µM [inhibitor, single point]",–
COc1ccccc1NS(=O)(=O)c1cccc(NC(=S)NCCN2CCOCC2)c1,"inconclusive: 20.6 µM [inhibitor, single point]",–
Cc1oc(C)c2c(=O)ccc3c(c12)OC(N)=C(C#N)C3c1ccc(F)cc1 (configuration not stated),"inconclusive: 29.1 µM [inhibitor, single point]",–
COCCNC(=S)NNC(=O)CSCc1ccc(Cl)cc1Cl,–,inconclusive: -31.8% [inhibitor]
COC(=O)C1CCN(C(=O)c2ccc(OC)c(S(=O)(=O)N3CCCc4ccccc43)c2)CC1,"inconclusive: 29.1 µM [inhibitor, single point]",–
O=C(c1ccc2c(c1)N(Cc1cccc(Cl)c1)C(=O)c1ccccc1S2)N1CCOCC1,"inconclusive: 29.1 µM [inhibitor, single point]",–
CC1=NN(c2ccccc2)C(=O)C1C(=O)C(=O)Nc1ccc(F)cc1 (configuration not stated),"inconclusive: 29.1 µM [inhibitor, single point]",–
Nc1sc(-c2ccccc2)cc1-c1n[nH]c(=S)n1C1CCCCC1,active: 2.59 µM,–
Fc1ccccc1/C=N/Nc1nc(N2CCCCC2)nc(N2CCCCC2)n1,"inconclusive: 14.6 µM [inhibitor, single point]",–
Cc1ccc2[nH]c(=O)c3cc(C(=O)NCCc4ccc(Cl)cc4)sc3c2c1,"inconclusive: 18.4 µM [inhibitor, single point]",–
O=C(NCc1ccc(Cl)cc1)C1CCCN(C(=O)c2ccc(Cl)cc2)C1 (configuration not stated),"inconclusive: 29.1 µM [inhibitor, single point]",–
